# Source: the antibiotic and cytotoxicity screens of Wong et al. (2023)
# This is one part of the list.
# Legend:
# HSkMC = human skeletal muscle cells; test: cytotoxicity call (relative viability < 0.9); settings: 10 µM
# HepG2 = test: cytotoxicity call (relative viability < 0.9); settings: 10 µM
# S. aureus RN4220 = test: growth inhibition call (relative growth <= 0.2); settings: 50 µM
SMILES,cytotoxicity call (HSkMC),cytotoxicity call (HepG2),growth inhibition call (S. aureus RN4220)
C[C@H]1CCCCO[C@H](CN(C)C(=O)Nc2ccc(F)cc2)[C@@H](C)CN([C@@H](C)CO)C(=O)c2cc(NS(=O)(=O)c3ccc(F)cc3)ccc2O1,inactive,active,inactive
COc1ccc(NC(=O)Nc2ccc3c(c2)C(=O)N([C@H](C)CO)C[C@@H](C)[C@H](CN(C)S(=O)(=O)c2ccc(C)cc2)OCCCC[C@@H](C)O3)cc1,inactive,inactive,inactive
COc1ccc(CN(C)C[C@H]2Oc3ccc(NC(=O)C4CC4)cc3CC(=O)N([C@H](C)CO)C[C@@H]2C)cc1,inactive,inactive,inactive
O=C(C[C@@H]1C[C@H]2c3cc(NC(=O)Nc4ccccc4)ccc3O[C@H]2[C@@H](CO)O1)NCCN1CCCCC1,inactive,inactive,inactive
COc1ccc(S(=O)(=O)Nc2ccc3c(c2)C(=O)N([C@@H](C)CO)C[C@H](C)[C@H](CN(C)C(=O)Nc2c(C)noc2C)OCCCC[C@H](C)O3)cc1,inactive,inactive,inactive
C[C@H](CO)N1C[C@H](C)[C@H](CN(C)Cc2ccc(-c3ccccc3)cc2)Oc2c(NC(=O)C3CCOCC3)cccc2C1=O,inactive,inactive,inactive
Cc1ccc(S(=O)(=O)N(C)C[C@H]2Oc3ccc(NC(=O)CCN4CCOCC4)cc3C(=O)N([C@H](C)CO)C[C@@H]2C)cc1,inactive,inactive,inactive
C[C@@H]1CCCCO[C@H](CN(C)C(=O)Nc2ccc(C(F)(F)F)cc2)[C@H](C)CN([C@@H](C)CO)C(=O)c2cc(NS(=O)(=O)c3cccs3)ccc2O1,inactive,inactive,inactive
C[C@H]1CN([C@@H](C)CO)C(=O)CCCn2cc(nn2)CO[C@@H]1CN(C)C(=O)Nc1ccc2c(c1)OCO2,inactive,inactive,inactive
Cc1ccc(S(=O)(=O)Nc2ccc3c(c2)C(=O)N([C@H](C)CO)C[C@@H](C)[C@H](CN(C)Cc2ccc(Cl)c(Cl)c2)OCCCC[C@@H](C)O3)cc1,inactive,active,inactive
C[C@@H]1CN([C@H](C)CO)C(=O)c2cc(Br)cnc2O[C@@H]1CN(C)C(=O)Nc1cccc(F)c1,inactive,inactive,inactive
